Measured values as given in PubChem BioAssay AID1452 (National Center for Advancing Translational Sciences (NCATS), 2008).
In all, about 150,000 compounds went through this assay and about 190 (0.13%) were called active. Not shown: some 2% with an inconclusive outcome. Calls come from the whole dose curve; as a rule, active = well fitted inhibition curve with a large enough effect; inconclusive = small, poorly fitted or top-dose-only effect; inactive = flat fitted curve, though single readings scatter. Only a part is listed here, and it is no random draw.

biological target: Polyunsaturated fatty acid lipoxygenase ALOX12 (Homo sapiens) (UniProt P18054); assay: qHTS Assay for Inhibitors of 12-hLO (12-human lipoxygenase); conditions: purified 12-hLO, xylenol orange hydroperoxide absorbance; series mostly up to 57.1 µM; activity change, negative = inhibition: at the top concentration; note: nearly all actives have a fitted effect of over 55% in size
Sequence of UniProt P18054 (P18054 whole entry, looked up): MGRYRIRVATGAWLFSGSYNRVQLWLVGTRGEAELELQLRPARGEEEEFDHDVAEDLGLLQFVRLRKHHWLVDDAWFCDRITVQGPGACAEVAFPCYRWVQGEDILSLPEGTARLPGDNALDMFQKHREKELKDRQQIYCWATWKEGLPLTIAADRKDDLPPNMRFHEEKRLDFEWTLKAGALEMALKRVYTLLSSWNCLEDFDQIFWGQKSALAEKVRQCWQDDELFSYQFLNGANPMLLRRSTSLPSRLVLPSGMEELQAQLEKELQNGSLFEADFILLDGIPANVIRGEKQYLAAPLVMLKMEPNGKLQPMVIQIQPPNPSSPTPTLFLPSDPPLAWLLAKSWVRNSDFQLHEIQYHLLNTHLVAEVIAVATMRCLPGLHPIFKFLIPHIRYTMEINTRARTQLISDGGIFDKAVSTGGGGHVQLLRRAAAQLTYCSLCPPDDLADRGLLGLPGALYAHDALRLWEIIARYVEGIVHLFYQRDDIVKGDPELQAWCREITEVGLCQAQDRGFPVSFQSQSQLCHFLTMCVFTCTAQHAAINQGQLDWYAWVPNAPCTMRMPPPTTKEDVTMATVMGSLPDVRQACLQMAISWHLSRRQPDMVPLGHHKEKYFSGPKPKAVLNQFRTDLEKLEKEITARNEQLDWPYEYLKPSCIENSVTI
Description: Assay Provider: Holman, T.R., University of California, Santa Cruz Screening Center PI: Austin, C.P. Screening Center: NIH Chemical Genomics Center [NCGC] Human lipoxygenase 12hLO is a member of the closely related lipoxygenase family of enzymes which catalyze the site-specific oxidation of arachidonic acid to various hormone precursor molecules and as such is a candidate for drug development in a variety of disease areas, such as cancer and inflammation. Inhibition of 12hLO activity was screened by utilizing arachidonic acid as a substrate. The extent of hydroperoxide product formation was measured by a secondary chromogenic reaction in which xylenol orange (XO, Sigma-Aldrich, cat. number 39,818-7) reacts with the ferric ions produced from the reaction between the hydroperoxide and ferrous ions. The Fe(III)-XO complex is characterized with red-shifted absorbance at 560 nm. A purified preparation of human 12hLO was supplied by Professor Ted Holman, University of California, Santa Cruz.
Assay Protocol: Buffer: 25 mM Hepes pH 7.0, 0.01% Triton X-100. Reagents/Controls: Buffer in columns 3 and 4 as negative control (no enzyme). Substrate solution: 40 uM arachidonic acid (Sigma-Aldrich, St. Louis, MO) final concentration dispensed throughout the plate. Enzyme: 150 nM 12hLO final concentration in columns 1, 2, 5-48. Column 1 is neutral (100% activity). Column 2 contained pin-transferred titration of NDGA (nordihidroguaiaretic acid, Sigma-Aldrich, N 5023, top concentration 20 mM in DMSO, then 1:3 dilution in duplicate). (Dilution factor: 23 nL into 4 uL.) Chromogenic detection reagent (divalent iron/xylenol orange, Fe-XO): 200 uM xylenol orange plus 300 uM ferrous ammonium sulfate prepared freshly in 50 mM sulfuric acid. Assay Steps: Three uL of enzyme were dispensed to 1536-well Greiner black clear bottom plates. Compounds and controls (23 nL) were transferred via Kalypsys PinTool. The plates were incubated for 15 min at room temperature, and then 1 uL of substrate solution was added to start the reaction. After room temperature incubation for 30 minutes, 4 uL of Fe-XO solution was added to each well and the plates were incubated for 30 min. The absorbance at 405 and 573 nm were measured using ViewLux (Perkin-Elmer) High-throughput CCD imager and absorbance protocol settings. The 573-to-405 absorbance ratio was used to compute reaction progress.
% is set by controls: 0 for no effect and ±100 for the full control effect; potency is the fitted concentration of half-maximal effect.

Compound | Potency | activity change, negative = inhibition
CC[C@H]1C(=O)OC[C@H]1Cc1cncn1C | inactive | –
c1ccc2ncccc2c1 | – | inactive: 0.972%
Oc1cccc2cccnc12 | inactive | –
CN(C)C(=O)C(CCN1CCC(O)(c2ccc(Cl)cc2)CC1)(c1ccccc1)c1ccccc1 | inactive | –
CC(C)[C@@]1(NC(=O)[C@@H]2C[C@@H]3c4cccc5[nH]cc(c45)C[C@H]3N(C)C2)O[C@@]2(O)[C@@H]3CCCN3C(=O)[C@H](Cc3ccccc3)N2C1=O | – | inactive: -7.8%
CC(C)[C@@]1(NC(=O)[C@@H]2C[C@H]3c4cccc5[nH]cc(c45)C[C@@H]3N(C)C2)O[C@@]2(O)[C@H]3CCCN3C(=O)[C@H](Cc3ccccc3)N2C1=O | – | inactive: -10.1%
C[N+](C)(C)CC#CCN1CCCC1=O | – | inactive: -6%
CCCCC(=O)N/N=C/c1c(O)n(CC)c(=S)n(CC)c1=O | – | inactive: -1.13%
CC[C@@H]1C(=O)OC[C@@H]1Cc1cncn1C | inactive | –
O=C1CC(c2ccc(O)cc2)Oc2cc(O)cc(O)c21 (stereo not given) | inactive | –
CNC(C)[C@H](O)c1ccccc1 (stereo not given in full) | – | inactive: 1.29%
COC(=O)C1=C(C)NC(C)=C(C(=O)OC)C1c1ccccc1[N+](=O)[O-] | inactive | –
CCC1C(=O)OCC1Cc1cncn1C (stereo not given) | – | inactive: -5.51%
CCC1C(=O)OC[C@H]1Cc1cncn1C (stereo not given in full) | – | inactive: -4.38%
COc1ccc2c(c[n+](C)c3c4cc5c(cc4ccc23)OCO5)c1OC | – | inactive: -14.7%
C[C@]12N[C@H](Cc3ccccc31)c1ccccc12 | – | inactive: 1.66%
CC1CCCCN1CC(=O)c1ccc2cc[nH]c2c1 (stereo not given) | – | inactive: 46.8%
Cc1ccc(/C=C2\C(=O)NC(=O)N(CCc3ccc(F)cc3)C2=O)o1 | – | inactive: -20.5%
CCCCCCCCCCCCCCCC[n+]1ccccc1 | inactive | –
O=C1C2(Cl)C3(Cl)C4(Cl)C(Cl)(Cl)C5(Cl)C3(Cl)C1(Cl)C5(Cl)C24Cl (stereo not given) | – | inactive: -20%
CCCCC/C=C\C/C=C\C/C=C\C/C=C\CCCC(=O)NCCc1ccc(O)c(O)c1 | – | inactive: -22.4%
CC(C)[C@@]1(NC(=O)[C@@H]2C[C@H]3c4cccc5[nH]cc(c45)C[C@@H]3N(C)C2)O[C@]2(O)[C@H]3CCCN3C(=O)[C@H](Cc3ccccc3)N2C1=O | – | inactive: 1.74% [at 25.6 µM]
C[C@H]1O[C@H]1P(=O)(O)O | inactive | –
C[C@]12N[C@@H](Cc3ccccc31)c1ccccc12 | inactive | –
Cc1cc(C)cc(N2C(=O)NC(=O)/C(=C/c3cccn3-c3ccc(Cl)cc3)C2=O)c1 | – | inactive: -3.22%
c1ccc2c(c1)Nc1ccccc1S2 | active: 14.1 µM | –
CCCCC/C=C\C/C=C\C/C=C\C/C=C\CCCCCC(=O)NCCO | inactive | –
Cc1ccccc1 | – | inactive: -2.71%
CNC(C)[C@@H](O)c1ccccc1 (stereo not given in full) | – | inactive: 3.94%
CC1OC1P(=O)(O)O (stereo not given) | – | inactive: 0.446%
